This is an account of results in patent US11684652B2, “HMGB1 antagonist treatment of acute lung injury” (THE FEINSTEIN INSTITUTES FOR MEDICAL RESEARCH, priority 2019, dated 2023).

For assay [1], the system named is influenza virus A/PR/8/34 (PR8). As to conditions: Shirey 2016, cited from earlier work.
Assay [2] has the same test system. As to the kind of experiment: lethal influenza infection model. The following applies: K883 100 ug/mouse intraperitoneally for 5 consecutive days from two days after infection; vs vehicle. Format: in vivo.

In the case of `NC(=O)[C@H](CCC(=O)O)NC(=O)[C@H](CO)NC(=O)[C@H](CO)NC(=O)[C@@H](N)Cc1ccccc1` [P5779], the “clinical scores in survivors” value in assay [1] is recorded as “lowers clinical scores”. For the same molecule, in assay [1] (given daily for five days beginning two days after influenza infection), the reduction of mortality entry is recorded as “approximately 9 fold”.
Consider `NC(=O)N(CCC(=O)O)NC(=O)[C@H](CO)NC(=O)[C@H](CO)NC(=O)N(N)Cc1ccccc1` [K883], for which the “clinical scores after PR8 infection” value in assay [2] is recorded as “lowered clinical scores”.
